± gives the uncertainty stated by the source. Over roughly 9,900 compounds, “viability index relative to DMSO control” has its median near 1; the lowest 2% begin near 0.85. The list shows a part of the results.
Each molecule was assayed on Plasmodium falciparum NF54 stage V gametocytes (assay: viability index relative to DMSO control (fraction); higher = less gametocyte killing). Details: 2.5 µM, library set: Broad Institute DOS, incubation time: 72 h.
In short: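 P. falciparum NF54 stage V gametocytes in serum-free screening medium (0.75% gametocytemia, 1.25% hematocrit, 10 µl) were incubated with compound at 2.5 µM in 1,536-well plates for 72 hr at 37°C under low oxygen. Then 3 µl of 2.5 µM MitoTracker Red CMXRos plus 0.13% saponin was added for one to two hours. One field per well was imaged, 20–70 µm2 red particles were counted, and the viability index was the count divided by the plate mean of DMSO wells.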
`CCS(=O)(=O)N1CC[C@@]2(CC1)CN([C@@H](CO)c1c2c2ccc(OC)cc2n1C)C(=O)Nc1c(C)noc1C` was tested, and the viability index was 0.999 ± 0.033. In the case of `CO[C@@H]1CN(C)C(=O)c2ccc(NC(=O)C3CCC3)cc2OC[C@@H](C)N(Cc2ccccn2)C[C@@H]1C`, the viability index is reported as 1.088 ± 0.008. With `COc1ccc(CN(C)C[C@@H]2OCCCC[C@@H](C)Oc3ccc(NC(=O)C4CCCCC4)cc3C(=O)N([C@H](C)CO)C[C@@H]2C)cc1` the viability index was 1.06 ± 0.021. `CC(=O)N1Cc2cc(C(=O)NCC(F)(F)F)nc(-c3cccc(-c4cc5ccccc5o4)c3)c2[C@H]1CCO` showed a viability index of 1.04 ± 0.057. Molecule `O=C(C[C@@H]1CC[C@@H]2[C@H](COC[C@@H](O)CN2C(=O)Nc2ccccc2)O1)NCc1ccccc1F` has a viability index of 1.12 ± 0.035. With `CO[C@@H]1CN(C)C(=O)c2ccc(NC(C)=O)cc2OC[C@H](C)N(C(=O)c2cnccn2)C[C@H]1C` the viability index was 0.961 ± 0.073. Molecule `CC(C)c1cn(CC[C@H]2CC[C@H](NS(=O)(=O)c3ccc(F)cc3)[C@H](CO)O2)nn1` has a viability index of 1.05 ± 0.13. For `CN(C)CC(=O)N1CCCCN2[C@@H](CO)[C@@H](c3ccc(-c4cncnc4)cc3)[C@@H]2C1`, the viability index was 1.01 ± 0.056. With `Cc1noc(C)c1S(=O)(=O)N(C)C[C@H]1Oc2c(NC(=O)c3ccc(-c4nccs4)cc3)cccc2C(=O)N([C@H](C)CO)C[C@H]1C` the viability index was 0.946 ± 0.06. `N#Cc1cccc(-c2ccc3c(c2)[C@H]2[C@H](CCN2S(=O)(=O)c2ccc(F)cc2)[C@@H](CO)N3)c1` showed a viability index of 0.949 ± 0.023. `COc1cccc(S(=O)(=O)N2C[C@H](O)COC[C@@H]3O[C@@H](CC(=O)N4CCN(c5ccccc5)CC4)CC[C@H]32)c1` gave a viability index of 1.038 ± 0.0048. In the case of `CCCNC(=O)N[C@H]1C=C[C@H](CC(=O)N2CCN(C)CC2)O[C@@H]1CO`, the viability index is reported as 1.02 ± 0.022. Molecule `CCCNC(=O)N1C[C@]2(CCN(CC2)C(=O)C2CCOCC2)c2c([nH]c3cc(OC)ccc23)[C@H]1CO` has a viability index of 1.04 ± 0.043. Molecule `Cc1ccccc1-c1cnc2c(c1)C(=O)N([C@@H](C)CO)C[C@H](C)[C@H](CN(C)Cc1ccccc1F)O2` has a viability index of 1.09 ± 0.045. In the case of `O=C(C[C@H]1C[C@@H]2c3cc(NC(=O)c4cccnc4)ccc3O[C@@H]2[C@H](CO)O1)NCc1cc(F)ccc1F`, the viability index is reported as 1.08 ± 0.02. `CCS(=O)(=O)Nc1ccc2c(c1)C(=O)N(C)[C@H]1CC[C@H](CC(=O)N3CCN(C)CC3)O[C@H]1CO2` gave a viability index of 1.02 ± 0.12. For `COC(=O)[C@H]1[C@H](CO)[C@H]2Cn3c(ccc(-c4cncnc4)c3=O)[C@H]2N1CCC(F)(F)F`, the viability index was 1.08 ± 0.023. `C[C@H]1CN([C@@H](C)CO)C(=O)c2ccccc2-c2ccccc2CO[C@H]1CN(C)C(=O)Nc1cccc(Cl)c1Cl` showed a viability index of 0.9208 ± 0.0078. `O=C(C[C@H]1CC[C@@H]2[C@H](COC[C@H](O)CN2S(=O)(=O)c2cccc(F)c2)O1)NCc1ccncn1` was tested, and the viability index was 1.032 ± 0.0033. `C/C=C/c1ccc([C@H]2[C@@H](C#N)N(C(=O)NC3CCCCC3)[C@H]2CO)cc1` gave a viability index of 1.13 ± 0.013. With `O=C(C[C@H]1CC[C@H]2[C@@H](COC[C@@H](O)CN2C(=O)c2ccccc2F)O1)NCc1ccc(Cl)c(Cl)c1` the viability index was 1.094 ± 0.0057. In the case of `N#C[C@H]1[C@@H](c2ccccc2/C=C/c2ccccc2)[C@@H](CO)N1C(=O)Nc1ccccc1`, the viability index is reported as 0.987 ± 0.081. `CCCN(C)C[C@@H]1OCCCC[C@H](C)Oc2ccc(NC(=O)CCCN(C)C)cc2C(=O)N([C@H](C)CO)C[C@@H]1C` showed a viability index of 1.07 ± 0.22. In the case of `C[C@H]1CN([C@@H](C)CO)C(=O)c2cc(-c3ccncc3)cnc2O[C@@H]1CN(C)C(=O)CN1CCOCC1`, the viability index is reported as 1.063 ± 0.0024. `C[C@@H]1CN([C@H](C)CO)C(=O)c2cc(N(C)C)ccc2O[C@@H]1CN(C)CC1CCCCC1` was tested, and the viability index was 1.0152 ± 0.00043. `C/C=C/c1ccc([C@@H]2[C@H](CO)N3C(=O)CN(Cc4ccc(F)cc4)C[C@@H]23)cc1` gave a viability index of 1.01 ± 0.035. `O=C(C[C@H]1CC[C@H]2[C@@H](COC[C@H](O)CN2C(=O)Nc2cc(Cl)cc(Cl)c2)O1)N1CCOCC1` showed a viability index of 0.9857 ± 0.0071. `CCC(=O)N1C[C@@]2(C1)CN([C@H](CO)c1c2c2ccc(OC)cc2n1C)C(=O)c1cnccn1` was tested, and the viability index was 1 ± 0.024. `Cc1noc(C)c1S(=O)(=O)N(C)C[C@H]1OCc2cnnn2CCCC(=O)N([C@@H](C)CO)C[C@H]1C` gave a viability index of 1.05 ± 0.08. For `Cc1noc(C)c1S(=O)(=O)N(C)C[C@@H]1OCc2cn(nn2)CCCC(=O)N([C@@H](C)CO)C[C@@H]1C`, the viability index was 1.0256 ± 0.001. Work on `COc1ccccc1C#Cc1ccc2c(c1)[C@H]1[C@H](CCN1C(=O)c1ccncc1)[C@@H](CO)N2` yielded a viability index of 1.06 ± 0.042. With `COc1ccccc1-c1ccc2c(c1)[C@@H]1[C@@H](CCN1S(=O)(=O)c1ccc(C)cc1)[C@H](CO)N2` the viability index was 0.836 ± 0.028. For `C[C@@H]1CCCCO[C@H](CN(C)Cc2ccncc2)[C@H](C)CN([C@H](C)CO)C(=O)c2cc(NS(=O)(=O)c3ccc(Cl)cc3)ccc2O1`, the viability index was 0.97 ± 0.073. `Cc1ccc(S(=O)(=O)Nc2cccc3c2O[C@@H](CN(C)C(=O)Nc2ccc(C(F)(F)F)cc2)[C@@H](C)CN([C@@H](C)CO)C3=O)cc1` gave a viability index of 1.05 ± 0.033. Work on `O=C(N[C@@H]1CC[C@H](CC(=O)N2CCOCC2)O[C@H]1CO)c1cccc(F)c1` yielded a viability index of 1.07 ± 0.062. Work on `COc1ccccc1C(=O)N1C[C@H]2[C@@H](c3ccccc31)[C@@H](CO)N2CC1CCCC1` yielded a viability index of 1.051 ± 0.0014. `COCC(=O)N1C[C@]2(CN(Cc3ccc(Cl)cc3)C2)c2c([nH]c3cc(OC)ccc23)[C@@H]1CO` showed a viability index of 0.979 ± 0.02. `Cn1cnc(CCNC(=O)[C@@H]2[C@@H](CO)[C@@H]3Cn4c(cccc4=O)[C@@H]3N2C(=O)Nc2ccccc2)c1` showed a viability index of 1.053 ± 0.0063. Work on `C[C@@H]1CN([C@@H](C)CO)C(=O)c2cc(Br)cnc2O[C@@H]1CN(C)Cc1ccc(Oc2ccccc2)cc1` yielded a viability index of 1.02 ± 0.039. With `O=C(Cc1ccccn1)N1CC[C@@H]2[C@H](CO)Nc3ccc(-c4cccc(F)c4)cc3[C@@H]21` the viability index was 1.04 ± 0.032. In the case of `COCC(=O)N1[C@H](C#N)[C@@H](c2ccc(C#CCC3CCCC3)cc2)[C@H]1CO`, the viability index is reported as 1.06 ± 0.072. For `C[C@H]1CN([C@@H](C)CO)C(=O)CCCn2cc(nn2)CO[C@@H]1CN(C)C(=O)Nc1cccc2ccccc12`, the viability index was 0.9542 ± 0.0035. For `CCCC#Cc1ccc([C@H]2[C@@H](CO)N(C(C)=O)[C@H]2CN(C)C(=O)C2CC2)cc1`, the viability index was 1.02 ± 0.044. Work on `CCC(=O)N1[C@H](CO)[C@H](c2ccc(C3=CCCC3)cc2)[C@@H]1CNC1CCCCC1` yielded a viability index of 1.09 ± 0.02. `COCC(=O)Nc1ccc2c(c1)OC[C@@H](C)N(C(=O)CN1CCOCC1)C[C@@H](C)[C@H](OC)CN(C)C2=O` was tested, and the viability index was 1.084 ± 0.0016.
